# Test results published in PubChem BioAssay AID686971 (National Center for Advancing Translational Sciences (NCATS), 2013).
# Screen size: about 360,000 compounds; about 7,500 (2.1%) were called active. Inconclusive results, whose numbers are uncertain, are shown with a selection of clear calls. Calls follow the shape of the dose curve; as a rule, active = well fitted cell-killing curve with a large enough effect; inconclusive = small, poorly fitted or top-dose-only effect, or effect the other way, or another doubt; inactive = no such curve, though single readings can be large or run the other way. Potencies of inconclusive entries are left out as doubtful fits.
# Experiment: qHTS for induction of synthetic lethality in tumor cells producing 2HG: qHTS for the HT-1080-IDH1KD cell line;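 as to activity, negative = toxicity: 0% = DMSO wells and -100% = cell-free medium wells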
# Details: HT-1080 IDH1 knockdown viability, ATP luminescence, 48 h; activity, negative = toxicity: at 46.1 µM (top of the series) unless noted
# Method in brief: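 Luminescent ATP read-out (CellTiter-Glo, 10 min at room temperature) after 48 h compound exposure at 37 °C gave viability of IDH1-knockdown HT-1080 cells. Activity was normalised to DMSO and cell-free wells, then fitted as concentration-response curves.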
# Potency is read from the fitted curve at half-maximal effect; tags tell the direction and shape of the fitted curve.
Structure (SMILES),Potency,"activity, negative = toxicity"
CCn1c(C)nc2cc(C(=O)N/N=C/c3cccc(O)c3O)ccc21,"inconclusive [cytotoxic, partial curve]",–
CC(C)(C)c1ccc(C(=O)N/N=C/c2cccc(Cl)c2)cc1,"inconclusive [cytotoxic, partial curve]",–
COc1ccc(OCCCc2c(C)n[nH]c2C)cc1,"inconclusive [cytotoxic, single point]",–
CC1(C)C=Cc2c(c3ccccc3[nH]c2=O)O1,–,inactive: -4.27%
O=[N+]([O-])c1ccc(CSc2nnc(Cc3ccccc3)n2-c2ccc(F)cc2)cc1,–,inactive: -25.2%
CCN1CCCC(OC(=O)c2cc(-c3ccc(C)cc3)nc3ccccc23)C1 (configuration not stated),"inconclusive [cytotoxic, single point]",–
Cc1cc(C)cc(Cn2c(C)c(C(=O)N(C)Cc3ccc(F)cc3)sc2=O)c1,"inconclusive [cytotoxic, single point]",–
Cc1ccc(-c2nc3c(C)cc(Br)cn3c2Cc2ccsc2)cc1,active: 16.4 µM,–
CN(CC(=O)Nc1ccccc1Cl)C(=O)C1CCN(C(=O)c2ccc(F)cc2)CC1,–,inactive: 13.2%
CS(=O)(=O)N(Cc1ccccc1Cl)c1ccc(C(=O)NCc2cccnc2)cc1,"inconclusive [cytotoxic, single point]",–
COc1cccc(NC(=O)CSc2nn3c(=O)c(C)nnc3s2)c1,–,inactive: 0.146%
COc1ccc(-c2nc3ccc(NC(=O)CO)cc3c(=O)n2Cc2cccc(Cl)c2)cc1COc1ccc(NC(C)=O)cc1,"inconclusive [cytotoxic, single point]",–
O=C(O)c1cc(O)c2c(c1)[C@H]([C@H]1c3cc(C(=O)O)cc(O)c3C(=O)c3c(O[C@@H]4O[C@H](CO)[C@@H](O)[C@H](O)[C@H]4O)cccc31)c1cccc(OC3O[C@H](CO)[C@@H](O)[C@H](O)[C@H]3O)c1C2=O (some centres not stated),"inconclusive [cytotoxic, single point]",–
O=C(c1cccc(S(=O)(=O)NCc2ccccc2)c1)N1CCN(c2cccc(C(F)(F)F)c2)CC1,"inconclusive [cytotoxic, single point]",–
Nc1ccc(CSc2ccc(Cl)cc2)cc1,–,inactive: 9.23%
OCC1=C[C@@H](O)C2C=CO[C@@H](O[C@@H]3O[C@H](CO)[C@@H](O)[C@H](O)[C@H]3O)C12 (some centres not stated),–,inactive: 6.09%
O=C(CSc1ccc2ccccc2c1)N1CCN(c2ccc(O)cc2)CC1,"inconclusive [cytotoxic, single point]",–
CCN1C(=O)C(CC(=O)Nc2ccc(OC)cc2)N(CCc2ccc(F)cc2)C1=S (configuration not stated),"inconclusive [cytotoxic, partial curve]",–
Cn1c(=O)cc(OCCCC(=O)NCc2ccccn2)c2ccccc21,–,inactive: -9.71%
CCc1nnc(NC(=O)Cc2ccc(OCc3c(C)noc3C)cc2)s1,–,inactive: 5.62%
O=C(CCCOc1ccccc1)Nc1ccc(Br)cc1,"inconclusive [cytotoxic, partial curve]",–
CCOC(=O)c1cc(-c2ccc(OC)cc2)nc2c1c(C)nn2CCC(N)=S,"inconclusive [cytotoxic, single point]",–
Cc1cc(C)c(OCC(=O)Nc2ccccc2N2CCOCC2)c(C)c1,"inconclusive [cytotoxic, single point]",–
CCOC(=O)Cc1cc(-c2ccc(O)cc2)nc2ccc3ccccc3c12,"inconclusive [cytotoxic, single point]",–

Structure (SMILES),Potency,"activity, negative = toxicity"
COc1ccc(-c2csc3nc(C)nc(N4CCN(C(C)=O)CC4)c23)cc1OC,–,inactive: -2.24%
NC(=O)C1(N2CCCCC2)CCN(c2nc(-c3ccccc3)cs2)CC1,–,inactive: -27.7%
CC(=O)c1c(C)[nH]c(C(=O)COC(=O)CCCOc2ccccc2)c1C,–,inactive: -3.12%
NC(=O)C1CN(C(=O)c2cccc(S(=O)(=O)N3CCc4ccccc43)c2)c2ccccc2O1 (configuration not stated),–,inactive: -3.71%
CCCCC(CCC(=O)O)(C(=O)OCC)c1csc(Nc2ccc(C)cc2)n1 (configuration not stated),"inconclusive [cytotoxic, single point]",–
CCCCCCCCN1C(=O)[C@H](CC(=O)NCCCOC)C[C@@]2(C(=O)OC)CC(C)(C)CC=C12,"inconclusive [cytotoxic, single point]",–
O=C(Nc1cccnc1)c1ccc(COc2ccccc2Br)o1,active: 10 µM,–
Cc1cc(F)ccc1NC(=O)c1cc(S(=O)(=O)N2CCc3ccccc32)cn1C,–,inactive: -13.6%
O=C(COC(=O)c1ccc2c(c1)S(=O)(=O)N=C1CCCCCN12)NCc1cccs1,–,inactive: 4.41%
CC(OC(=O)c1ccncc1)C(=O)Nc1cc(S(=O)(=O)N2CCCCC2)ccc1Cl (configuration not stated),–,inactive: -3.11%
CN(C)CCCN(C(=O)C1=COCCO1)c1nc2ccc(Br)cc2s1,active: 23.1 µM,–
Cc1ccc(S(=O)(=O)NCc2ccncc2)cc1C,active: 23.1 µM,–
CS(=O)(=O)N1CCN(c2ccccc2NC(=O)c2ccc(Br)o2)CC1,"inconclusive [cytotoxic, single point]",–
CCOC(=O)c1ccc(NC(=O)CC2COc3ccccc3O2)cc1 (configuration not stated),–,inactive: -2.13%
CCCCN1/C(=C/c2ccc3ccccc3[n+]2CC)Sc2ccccc21,active: 14.6 µM,–
COc1cccc(NC(=O)COC(=O)c2cc(S(=O)(=O)N3CCOCC3)ccc2C)c1,–,inactive: -3.33%
CCc1c(C2CC2)ncn1Cc1cccc(-c2ccccc2)c1,active: 16.4 µM,–
COc1ccc2c(C)nc(Nc3nc(C)c(C)c(=O)[nH]3)nc2c1,"inconclusive [cytotoxic, single point]",–
O=C(NCCCn1ccnc1)c1ccc(Br)o1,–,inactive: 5.87%
C=CCNC(=S)NNC(=O)c1csc(C)c1CC,"inconclusive [cytotoxic, single point]",–
CC(=O)c1c(C)oc2ccc(N(C(C)=O)S(=O)(=O)c3cccc4cccnc34)cc12,active: 25.9 µM,–
Cn1c2ccccc2c2c(C(=O)N3CCN(C(=O)c4ccco4)CC3)cn(C3CCCCC3)c(=O)c21,"inconclusive [cytotoxic, single point]",–
CSc1ccc(CC(=O)N2CCC(n3nccc3NC(=O)C3CC3)CC2)cc1,–,inconclusive: 32.2%
